Source: ChEMBL document CHEMBL4888484, “Replenishing the malaria drug discovery pipeline: Screening and hit evaluation of the MMV Hit Generation Library 1 (HGL1) against asexual blood stage Plasmodium falciparum ,using a nano luciferase reporter read-out” (2022)
In all, about 150,000 compounds went through this assay and about 540 (0.36%) showed an effect of 50% or more. Some of the results follow.

Each compound was assayed on Plasmodium falciparum (assay: Primary screen in NF54 nanoGlo assay, in single point, at 2uM, 72h; a lower Z score goes with more inhibition). Conditions: timepoint 72 hour.
Assay type: functional, Erythrocyte

Compound | % Inhibition [%] | Z score
CN(Cc1ccccc1)c1ncccc1CNc1cc(C#N)ccn1 | -8 | 1.17
Cc1cnc([C@H](C)Nc2cnn(-c3ccccc3Br)c2)o1 | 5 | -0.7
C[C@H](O)CN(C)C(=O)NCCc1cc(Cl)ccc1Br | -2 | 0.23
c1ccc(-c2nnc3n2C2(CCCC2)Cc2ccccc2-3)cc1 | -9 | 1.24
Cc1nnc(N(C)C[C@H]2CCN(C(C)C)C2)s1 | -16 | 2.04
Cc1c(NC(=O)N2CCO[C@]3(CCOC3)C2)cccc1C(F)(F)F | 13 | -1.46
O=C(CN1C(=O)NC2(CCN(Cc3ccccc3)CC2)C1=O)Nc1ccc2c(c1)OCCO2 | -7 | 0.78
COc1ccc(-n2cnc3cc(Nc4nnc(-c5ccc(C)cc5)c5ccccc45)ccc32)cc1 | 8 | -1.02
COc1ccccc1C(O)Cn1cc(C(=O)NC2CCc3ccccc32)nn1 (stereo not drawn) | -10 | 1.85
O=C(NCc1ccc2c(c1)OCO2)[C@@H]1CCCCn2nnnc21 | -10 | 1.81
COC(=O)[C@H](NCC(=O)Nc1cccc(N2CCCC2=O)c1)c1ccc(OC)cc1 | -13 | 1.2
Brc1ccc(-c2noc(-c3cccnc3)n2)o1 | -5 | 0.73
CCN(CC)Cc1cnc2c(C(=O)N(C)Cc3cc[nH]n3)cnn2c1 | -9 | 1.25
COc1ccccc1/C=C/CN1CCC(N2CCC(C(=O)N3CCCC3)CC2)CC1 | -16 | 1.38
CC1CN(C)CCC1N(C)C(=O)c1snc(O)c1Cl (stereo not drawn) | -5 | 0.83
CCn1ncnc1[C@H](C)NC(=O)c1cnnn1-c1ccccc1 | 6 | -1.08
CCCc1cc(=O)n(CC(=O)N2CCN(c3ccc(F)cc3)CC2)cn1 | -9 | 1.47
CC(C)CNC(=O)C(=O)NCc1ccc(-c2ccoc2)o1 | 1 | -0.07
CN(Cc1csc(-c2ccccc2)n1)C(=O)c1ccccc1-n1cncn1 | -10 | 1.33
CN(C[C@H]1COc2ccccc2O1)C(=O)Cn1c(CS(C)(=O)=O)nc2ccccc21 | 5 | -0.75
Cc1nc([C@H]2CCOC2)cc(N2CCN(c3cnccn3)CC2)n1 | 2 | -0.31

Compound | % Inhibition [%] | Z score
Cc1nn(CC(C)C)c(Cl)c1CN1CCC2(CC1)NC(=O)NC2=O | 5 | -0.58
CCC1CCCN(C(=O)C2CN(C)CCO2)CC1 (stereo not drawn) | -7 | 0.63
CC(O)CC1CCCN1C(=O)c1ccc2c(=O)[nH][nH]c2c1 (stereo not drawn) | -16 | 2.08
COCC(=O)N[C@@H]1CN(C(=O)CCCCc2ccccc2)C[C@H]1c1nccn1C | -2 | 0.31
Cc1c[nH]c([C@H](C)NC(=O)CCc2cnccn2)n1 | -10 | 1.08
Cc1nc2cc(NC(=O)c3cccc4ccccc34)ccc2o1 | -9 | 1.04
O=C([C@@H]1NCCc2ccccc21)N1CCC(F)(F)CC1 | 10 | -1.14
Cn1cc(CC(=O)NCc2ccccc2Cl)c2cccnc21 | -10 | 1.14
O=C(Nc1ccc(Cl)cc1)c1cnn2c1NCC[C@H]2C(F)(F)F | -5 | 0.96
CCOc1cccc(CNC(=O)[C@H]2CCN(c3cn[nH]c(=O)c3)C2)c1 | -15 | 2.12
O=C(NCCc1nccs1)c1n[nH]c2c1CCc1ccccc1-2 | -9 | 1.37
C[C@H](NC1(c2ccccc2Br)CC1)c1cnccn1 | -11 | 1.57
O=C(C[C@H]1CCCCN(Cc2ccccc2)C1=O)NCc1ccccc1 | -7 | 1.27
CS(=O)(=O)N1CCC(CNC(=O)NC[C@H]2CCCc3ccccc32)CC1 | -7 | 1.04
Cc1nsc(N2CCc3c(F)cc(F)cc3C2)n1 | -10 | 0.96
Cc1ccc(C(=O)NCc2ccn3ccnc3c2)c(Br)c1 | -1 | 0.08
O=C(Cc1cccs1)N1CC(F)(F)C[C@H]1c1nncn1CC1CC1 | -6 | 0.78
COc1ccc(-c2cc3c(=O)n(CC(=O)N4CCN(C(=O)c5ccco5)CC4)nc(C)n3n2)cc1 | -10 | 1.44
CC1CN2C(=O)CN(C(=O)Nc3ccc(F)c(F)c3F)CC2c2ccccc21 (stereo not drawn) | -13 | 1.8
COc1ccccc1CC(=O)NCc1nnc2n1CCC2 | -13 | 1.32
C[C@]1(C(=O)N2CCN(C/C=C/c3ccccc3)CC2)CC1(Cl)Cl | -13 | 1.46

Compound | % Inhibition [%] | Z score
O=C(Cn1nc2c3sc(N4CCCC4)nc3ncn2c1=O)NCc1ccccc1 | -7 | 1.14
CC[C@@H](C(=O)n1nc(-c2ccc(F)cc2)nc1N)c1ccccc1 | -5 | 0.77
CC(C)c1ccnc(NCCCCN2CCCC2)n1 | 5 | -0.99
CC(C)c1nc(C2CCN(C(=O)c3cc(N4CCNC(=O)C4)ccn3)CC2)no1 | -4 | 0.47
Cn1cccc1C1=NN(C(=O)CN(CCN2CCOCC2)C(=O)c2ccccc2Cl)[C@H](c2ccc(Cl)cc2)C1 | -14 | 2.23
COCCCn1c(C)cc(C(=O)N2CC[C@@]3(COC)CN(S(C)(=O)=O)C[C@H]3C2)c1C | -7 | 0.85
Cn1cc(CCCNC(=O)C[C@H]2CCCOC2)cn1 | -15 | 1.88
COc1ccccc1N1CCN(C(=O)c2nn(-c3ccccc3)c3c(=O)n(C)cnc23)CC1 | -11 | 1.01
Nc1nc(N2CCC(c3nccn3CC3CC3)CC2)c2nc[nH]c2n1 | -18 | 3.49
CCC[C@H](C)C(=O)NCC1(C)CCOCC1 | -3 | 0.52
O=C(CC1CCCC1)N1CCC2(CC1)C[C@@H](Cc1nc(-c3cccnc3)no1)CCO2 | -8 | 0.95
COC1([C@H](C)NCc2cc[nH]n2)CCCCC1 | -13 | 1.77
Cc1c(CN2CC(c3ccccc3)(c3ccccc3)CCC2=O)cnn1C | -6 | 1.1
C[C@H]1CN(C)c2ccccc2CN1C(=O)NC1CCC(=O)NC1C1CCCO1 (stereo partly drawn) | -1 | 0.27
CCc1n[nH]c(NS(=O)(=O)c2ccc3c(c2)S(=O)(=O)CC3)c1Br | 29 | -3.26
O=C(CCCn1cccn1)NS(=O)(=O)c1ccc2c(c1)CCCC2 | -19 | 3.02
O=C(Nc1ccsc1-c1nc(-c2ccc(F)c(F)c2)no1)c1cc(F)ccc1F | -11 | 1.09
CCn1c(-c2cccnc2)nc2cc(NC(=O)COC)cc(C(=O)N(C)CC(=O)OC)c21 | -16 | 1.87
COCC(O)CN1CCC(NC2CCCc3cc(F)ccc32)CC1 (stereo not drawn) | 1 | -0.12
C=CCn1nc(C(=O)N2CCCCC2)c2c1CC[C@H](NC1CCN(Cc3ccccc3)CC1)C2 | -10 | 1.17
CC(=O)NCC(=O)Nc1ccccc1NCC1CCCCC1 | -11 | 0.91

Compound | % Inhibition [%] | Z score
C[C@H](NC(=O)CC1CC(C)(C)NC(C)(C)C1)[C@H](O)c1ccc(O)cc1 | -13 | 1.25
CC(C)=CCC(C)(C)CNC(=O)NC1CCCCC1 | -1 | 0.08
O=C(NCC[C@@H](CCO)c1ccccc1)C(=O)NC1CC1 | 18 | -2.44
CCOc1ccc(OCc2nc(C[C@H]3CCCOC3)n(C(C)(C)C)n2)cc1 | -19 | 2.01
O=C1COc2cc(C(=O)N3CCC(c4ncon4)CC3)ccc2N1 | -13 | 1.3
CN(C)S(=O)(=O)Nc1cccc(COCC(F)(F)C(F)F)c1 | -5 | 0.52
CC(C)Oc1ccccc1-c1c[nH]c(C(=O)N2CCOCC2)c1 | -10 | 1.32
CC(C)CN(CC(C)(C)C)C(=O)c1cnns1 | -2 | 0.23
CCOc1ccc(OC(C)(C)C(=O)OCc2cn3ccccc3c2C#N)cc1 | -2 | 0.2
CN(CC(=O)Nc1nc(C(F)(F)F)ns1)S(C)(=O)=O | 4 | -0.59
COc1ccc2cc1Oc1cccc(c1)CO[C@H]1CN(C(=O)C3CCN(C)CC3)C[C@@H]1NC(=O)CN(C)C2 | -10 | 1.81
Cc1cc(C)nc(N(C)CCc2nc3ccccc3[nH]2)n1 | -6 | 0.89
COc1cccc(CCNC(=O)c2ccoc2C2CC2)n1 | -14 | 1.16
CCc1nc(C2CCN(Cc3cc(F)ccc3OC(F)F)CC2)n[nH]1 | 13 | -1.69
CCCOc1ccc(CCC(=O)NCc2nccnc2-c2cccnc2)cc1 | -20 | 2.9
CC(C)CCC1CCCC1NC(=O)C(=O)Nc1ccn(C)n1 (stereo not drawn) | 2 | -0.33
Cc1nc(C)c(COc2c(C)nn(C)c2C)s1 | 32 | -3.66
Cc1noc(C)c1-n1c(CCNc2ccccc2)n[nH]c1=O | -6 | 1.1
O=C1CN(c2ccc(CNC(=O)N3CCOCC3)cc2)CCN1 | 9 | -1.16
CC(=O)Nc1ccc(S(=O)(=O)Nc2ncn(Cc3ccc(Cl)cc3)n2)cc1 | 27 | -3.57
COc1cccc(OC)c1CN1CCC2(CC1)C[C@@H]2C(=O)N(C)Cc1cscn1 | -3 | 0.39
